Assay results: PubChem BioAssay AID485344 (National Center for Advancing Translational Sciences (NCATS), 2010)
The whole screen tested about 340,000 compounds, of which about 6,900 (2%) were called active. No stated cut-off is given here; in the data, active means inhibition above about 30%; inactive means below that, where a call was filed. This is a selection; strong and weak results do not stand in their true shares. Entries without a call were filed so in the source.

The molecules below were run against D(2) dopamine receptor (Homo sapiens) (UniProt P14416) (assay: HTS Assay for Allosteric Antagonists of the Human D2 Dopamine Receptor: Primary Screen for Antagonists). Details: HEK293 TREx D2 cells, calcium flux, dopamine EC80; at 10 µM; stronger effect = higher value.
Sequence of UniProt P14416 (P14416 whole entry, looked up): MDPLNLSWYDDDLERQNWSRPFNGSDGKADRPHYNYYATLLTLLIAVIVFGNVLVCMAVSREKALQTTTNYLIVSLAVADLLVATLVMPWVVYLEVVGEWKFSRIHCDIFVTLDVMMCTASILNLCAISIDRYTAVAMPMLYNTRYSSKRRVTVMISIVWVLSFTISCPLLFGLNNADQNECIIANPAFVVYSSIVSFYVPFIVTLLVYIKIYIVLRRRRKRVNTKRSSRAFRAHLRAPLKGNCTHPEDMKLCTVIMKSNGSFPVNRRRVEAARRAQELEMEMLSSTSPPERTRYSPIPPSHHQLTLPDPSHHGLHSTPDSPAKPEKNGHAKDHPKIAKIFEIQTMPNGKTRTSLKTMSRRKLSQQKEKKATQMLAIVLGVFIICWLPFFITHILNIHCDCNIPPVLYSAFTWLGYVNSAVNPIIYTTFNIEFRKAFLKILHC
Method in brief: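 Cells plated overnight at 30 C with tetracycline; no-wash calcium dye, 30–90 min RT; 10 s baseline; compound pinned; 180 s read; EC80 dopamine added; another 180 s read.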
Further: 0% is about no effect.

Row | SMILES | inhibition
1 | CCOC(=O)Cn1c(=O)n(C2CCCCC2)c2nc(-c3cccc(F)c3)nc(C(N)=O)c21 | 15.9%
2 | Cc1ccc(S(=O)(=O)c2cc3cc(C(=O)O)ccc3oc2=O)cc1 | 26.8%
3 | CCCN(CCC)CCCNC(=O)C1CCN(S(=O)(=O)CC)CC1 | 11.5%
4 | COc1ccc(C)c2sc(N(Cc3cccnc3)C(=O)C3CCCCC3)nc12 | -19.6%
5 | CCCCCOc1c(Cl)cc(C(=O)N(Cc2ccc(C)o2)C2CCS(=O)(=O)C2)cc1Cl (stereo unspecified) | 5.51%
6 | CCOC(=O)c1ccc(N2C(=O)c3n[nH]c(-c4ccco4)c3C2c2ccc(O)cc2)cc1 (stereo unspecified) | -6.11%
7 | CCCn1cc(S(=O)(=O)c2ccccc2)c(=O)c2cc(F)c(N3CCCC(C)C3)cc21 (stereo unspecified) | 7.55%
8 | COc1ccc(C)cc1NC(=O)c1c(C)oc2ncn(CC(C)C)c(=O)c12 | -4.54%
9 | Cc1c(C)n(C)c2ccc(C(=O)NCCCN3CCCCC3C)cc12 (stereo unspecified) | -5.11%
10 | O=C(c1cc2c(s1)-c1ccccc1OC2)N1CCN(c2ccccc2F)CC1 | -5.19%
11 | CCOC(=O)C1=C(c2ccccc2)O/C(=C(/C(=O)OC)C(F)(F)F)S1 | active: 39%
12 | CCCCN(CC)CCCNC(=O)c1nn(C)c2c1CS(=O)(=O)c1ccccc1-2 | 15%
13 | Cc1ccc(C)c(NC(=O)Cn2cc(C(=O)c3ccco3)c3ccccc32)c1 | -22.4%
14 | CCOC(=O)C1CCCN(c2cc(C)nc3c(-c4ccccc4OC)c(C)nn23)C1 (stereo unspecified) | -25%
15 | COc1cccc(Cn2c(CNC(=O)Cc3cccc(C)c3)nc3cccnc32)c1 | -20.7%
16 | Cc1ccccc1NC(=O)Cn1c(=O)oc2cc(Br)ccc21 | -6.99%
17 | COc1ccccc1-c1nc2c(c(SCC(=O)Nc3ccc(C)c(C)c3)n1)Cc1c(CO)cnc(C)c1O2 | 9.99%
18 | COc1ccc(C2=C(C)C(=NCCCN3CCN(c4cc(C)ccc4C)CC3)NS2(=O)=O)cc1 | -1.07%
19 | COc1ccc(N(CC(=O)Nc2cccc(Cl)c2C)S(=O)(=O)c2c(C)nn(C)c2C)cc1 | 2.84%
20 | Cc1ccc(NC(=O)c2cccc3c2C(=O)N(C2CCCCC2)C3)c(C)c1 | 23.6%
21 | N#Cc1ccccc1Cn1c(=O)n(CCCC(=O)NCc2ccccc2Cl)c(=O)c2ccccc21 | 1.6%
22 | O=C(Nc1ccc(F)c(Cl)c1)C1CCN(C(=O)c2ccc(F)cc2)CC1 | 0.446%
23 | Cc1nc2ccn(Cc3ccco3)c(=O)c2cc1C(=O)NCc1ccccc1F | 16.1%
24 | COc1ccc(Cl)cc1NC(=O)CSC1=Nc2ccccc2C2=NC(CCC(=O)NCc3ccc(F)cc3)C(=O)N12 (stereo unspecified) | -3.5%

Row | SMILES | inhibition
25 | O=C(NCc1ccccc1Cl)C1CCN(S(=O)(=O)Cc2ccccc2)CC1 | 16.8%
26 | CCOC(=O)c1ccc(NC(=O)c2cnn(-c3ccc(C)cc3C)c2C2CCN(C(=O)OC(C)(C)C)CC2)cc1 | -13.7%
27 | C/C(=N\NC(N)=O)c1cc(Cl)cc(Cl)c1O | active: 53.6%
28 | CCOc1cc(C(=O)Nc2ccc3nc(Nc4cccc(Cl)c4)cc(C)c3c2)cc(OCC)c1OCC | -5.35%
29 | CCCCCCNc1nc2c(c(=O)n(C)c(=O)n2C)n1Cc1cccc(C)c1 | 5.54%
30 | Cc1nn2c(C)c(C(=O)N3CCN(c4ccccc4F)CC3)cnc2c1-c1ccc(F)cc1 | 8.27%
31 | Cc1nnc(SCc2cc(=O)n3cccc(C)c3n2)s1 | -27.8%
32 | Cc1cccc(CCNC(=O)C2CCC(CNS(=O)(=O)c3ccccc3)CC2)c1 (stereo unspecified) | 14.8%
33 | COc1cccc(-c2nc(CS(=O)(=O)CC(=O)NCCc3ccc(OC)cc3OC)c(C)o2)c1 | -20.1%
34 | CCCC(CCC)C(=O)Nc1cccc(-c2nc3cccnc3s2)c1C | 11.2%
35 | CCOC(=O)c1scc(-c2ccccc2)c1S(=O)(=O)Nc1ccc(N(C)C)cc1 | -23.8%
36 | CC(C)CN(CCCNC(=O)c1cc(-c2ccc(Br)s2)nc2ccccc12)CC(C)C | -2.7%
37 | CC(=O)c1ccc(NC(=O)C[n+]2cccc(C)c2)cc1 | active: 36.6%
38 | O=C(Nc1nonc1-c1ccc(Cl)cc1)c1ccccc1F | -16.4%
39 | COc1ccc(CCNC(=O)C2(c3cccs3)CCOCC2)cc1 | -14.6%
40 | COc1ccc(N2CC(NC(=O)/C=C\c3ccc4c(c3)OCO4)CC2=O)cc1 (stereo unspecified) | -7.64%
41 | COc1ccc(NC(=O)C2CCN(S(=O)(=O)c3ccc4[nH]c(=O)ccc4c3)CC2)cc1Cl | -1.78%
42 | COc1cc(OC)c(NC(=O)C(c2ccccc2)N2Cc3ccccc3C2=O)cc1Cl (stereo unspecified) | 13.5%
43 | CCN(C/C=C/c1ccccc1OC)Cc1ccccc1 | active: 80%
44 | CCOc1ccc(N2CC(c3nc4ccccc4n3CCCOc3ccccc3OC)CC2=O)cc1 (stereo unspecified) | 6.01%
45 | CCc1nnc(SCc2cccc(F)c2)c2cc3sc(C)cc3n12 | 6.98%
46 | CCS(=O)(=O)N1CC(=O)N(c2ccc(Cl)cc2C)C(C)(C(=O)NC2CCCCCC2)C1 (stereo unspecified) | -12.9%
47 | COc1ccc(Br)cc1Cn1nnc(C(=O)Nc2ccc(C)cc2C)c1N | 14.6%
48 | CCCCOc1ccc(C(=O)N2CC(=O)Nc3ccc(Br)cc3C2c2ccc(F)cc2)cc1 (stereo unspecified) | 4.03%

Row | SMILES | inhibition
49 | Cc1cc(C)nc(NS(=O)(=O)c2ccc(NC(=O)c3ccccc3O)cc2)n1 | 4.24%
50 | Cc1cc(C)cc(-n2c(SCC(=O)N3CCCC3)nc3c([nH]c4ccccc43)c2=O)c1 | 4.28%
51 | Cn1c(=O)n(-c2ccc3c(c2)OCO3)c2nc(-c3ccc(Cl)cc3)nc(C(N)=O)c21 | 3.77%
52 | Cc1ccc(NC(=S)N(CCCN2CCCC(C)C2)Cc2ccco2)cc1C (stereo unspecified) | active: 45.7%
53 | Cc1ccccc1NC(=O)CSc1nc(-c2ccc(F)cc2)nc2c1Cc1ccccc1O2 | -9.84%
54 | OC(COc1ccc2c(c1)OCO2)CN1CCc2ccccc2C1 (stereo unspecified) | active: 41.8%
55 | Cc1nc2ccccc2n1CCc1nc2c3ccccc3nc(SCC(=O)Nc3cccc(C(F)(F)F)c3)n2n1 | -20.7%
56 | CCCCOc1ccc(C(=O)Nc2ccc(S(=O)(=O)Nc3nc(C)cc(C)n3)cc2)cc1 | 7.01%
57 | Cc1nnc(NCc2ccc(Cl)cc2)c2c1nnn2Cc1ccc(F)cc1 | -1.58%
58 | Cc1ccc2nc(-c3ccc(Cl)c(NC(=O)c4ccc5c(c4)OCCO5)c3)oc2c1 | 6.08%
59 | CC1CCc2nc3ncn(Cc4ccc(Cl)cc4)c(=O)c3cc2C1 (stereo unspecified) | 9.05%
60 | COC(=O)c1ccccc1NC(=O)c1cc(-c2ccc(Cl)cc2)on1 | 13.8%
61 | O=C(Cn1nc(-c2ccccc2)c2cnc3ccccc3c21)Nc1ccccc1 | -0.398%
62 | Cc1ccc(C)c(NC(=O)CN2C(=O)C3(SCC(=O)N3c3ccc(C)c(C)c3)c3ccccc32)c1 (stereo unspecified) | 9.14%
63 | CCC(=O)N1CCc2cc(CNS(=O)(=O)c3c(C)cc(C)cc3C)ccc21 | 10.8%
64 | Cc1ccc(Cn2nnc3sc4c(c3c2=O)CCC(C)C4)cc1 (stereo unspecified) | 8.37%
65 | Cc1ccc(Cl)cc1N(C)C(=O)c1noc2c1CCCCC2 | 4.02%
66 | COc1ccccc1NC(=O)C1=C(C)Nc2nc(SCC(=O)c3ccc(C)cc3)nn2C1c1ccccc1C (stereo unspecified) | 28%
67 | O=C(c1ccco1)N1CCC(N2CCN(c3ccccc3)CC2)CC1 | active: 60.8%
68 | COc1ccc(-n2cc(C(=O)N(C)c3cc(C)ccc3OC)c3ccccc3c2=O)cc1 | 10.8%
69 | CSCCC(NS(=O)(=O)c1ccc2c(c1)oc(=O)n2C)C(=O)NCc1ccc(F)cc1 (stereo unspecified) | 11.9%
70 | Cc1nn(Cc2noc(C(=O)NCc3cccc(F)c3)n2)c(C)c1Br | 9.05%
71 | COc1ccc(NC(=O)c2sc3nc(C)c(C(=O)Nc4ccc(C)cc4C)c(-c4ccccc4Cl)c3c2N)cc1 | -9.43%
72 | O=C(CN1C(=O)NC(Cc2ccccc2)C1=O)Nc1ccc(F)c(Cl)c1 (stereo unspecified) | active: 32.7%

Row | SMILES | inhibition
73 | CCOc1ccc(NS(=O)(=O)c2ccc3[nH]cc(C(=O)NCCOC)c(=O)c3c2)cc1 | -12%
74 | CN(C)CCN(Cc1ccccc1)S(=O)(=O)c1ccc(-c2cc(C(F)(F)F)on2)s1 | -2.72%
75 | CN(C)CCNC(=O)CCCn1c(=O)c2cccn2c2ccccc21 | -16.2%
76 | Cc1ccc(Nc2ncnc3c2cnn3-c2ccc(C)cc2)cc1 | -6.21%
77 | COc1cc(OC)c(NC(=O)c2cc(C(C)=O)n3ccccc23)cc1Cl | 0.324%
78 | CC(=O)Nc1ccc(NS(=O)(=O)c2cc(Br)cc3c2N(C(=O)C2CC2)CC3)cc1 | 9.7%
79 | CCOc1ccccc1NC(=O)CSc1ccc2nnc(CCNS(=O)(=O)c3ccccc3)n2n1 | 23.7%
80 | COc1ccc(C)cc1NS(=O)(=O)c1c(C)nc2sc(C)cn2c1=O | -9.08%
81 | Brc1ccc(-c2noc(-c3ccccc3)n2)o1 | -1.61%
82 | COCCNC(=O)CCCn1c(=O)[nH]c2ccsc2c1=O | -12.7%
83 | COc1ccc(NC(=O)Cn2c(=O)oc3cc(S(=O)(=O)N4CCCCC4C)ccc32)cc1 (stereo unspecified) | 5.63%
84 | O=C(c1ccccc1F)N1CCC(c2nc3c(nnn3Cc3cccc(F)c3)c(=O)[nH]2)CC1 | -3.79%
85 | Cc1ccc(NC(=S)N(CCCN2CCC(C)CC2)Cc2ccco2)cc1 | active: 34.7%
86 | Cc1oc(-c2ccc(C(=O)NC(C)c3ccccc3)cc2)nc1CS(=O)(=O)c1ccccc1 (stereo unspecified) | -12.8%
87 | COC(=O)c1ccccc1NC(=O)CCCN1C(=O)C(c2ccccc2)Oc2cccnc21 (stereo unspecified) | -10.4%
88 | COc1ccc(CCn2c(=O)[nH]c3cc(C(=O)N4CCN(c5ccccc5)CC4)ccc3c2=O)cc1OC | 11.8%
89 | COCCNC(=O)CCCN1C(=O)CCn2nc(-c3cccn3C)cc21 | -5.89%
90 | Cc1ccc(CCNC(=O)c2ccc(CS(=O)(=O)c3ccc(Cl)cc3)o2)cc1 | -10.7%
91 | CCN1C(=O)C2(c3ccccc31)c1c(oc3ccc(C)cc3c1=O)C(=O)N2CCCOC(C)C (stereo unspecified) | -8.11%
92 | Cc1cc2ccccc2n1CCNC(=O)c1ccc(F)cc1 | 3.51%
93 | CC1=C(c2ccc(C)cc2)S(=O)(=O)N(Cc2ccc(C(=O)Nc3ccccc3C)cc2)C1=O | 11.8%
94 | COc1ccccc1N1CCN(C(=O)CCc2c[nH]c3ccccc23)CC1 | active: 44.5%
95 | COc1cc(OC)c(OC)cc1CCC(C)NCCC(c1ccccc1)c1ccccc1 (stereo unspecified) | active: 49.2%
96 | Nc1nonc1-c1nc2ccccc2n1Cc1c(Cl)cccc1Cl | -4.58%
